Test results published in the supplement of paper PMC4967469.

What was measured:
Test in all cases: Viability of human cancer cell lines after 72 h of drug (GDSC screen)
YM155 = compound: COCC[n+]1c2c(n(Cc3cnccn3)c1C)C(=O)c1ccccc1C2=O [YM155]; conditions: top dose 5.12 µM
Procedure: (§1)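 Human cancer cell lines in 384-well plates, medium with 10% serum, drug for 72 h over a 256-fold dose range (nine 2-fold or five 4-fold steps up to the top dose). Adherent lines were fixed and stained with the nucleic acid dye Syto60, suspension lines read with resazurin; signal relative to control wells, capped at 0 and 100%. One two-parameter sigmoid per drug and line, fitted in a mixed model over all curves with the slope shared within a line.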

Docetaxel = compound: CC(=O)O[C@@]12CO[C@@H]1C[C@H](O)[C@@]1(C)C(=O)[C@H](O)C3=C(C)[C@@H](OC(=O)[C@H](O)[C@@H](NC(=O)OC(C)(C)C)c4ccccc4)C[C@@](O)([C@@H](OC(=O)c4ccccc4)[C@H]21)C3(C)C [Docetaxel]; conditions: top dose 0.0125 µM
Procedure: as §1

NSC-207895 = compound: CN1CCN(c2ccc([N+](=O)[O-])c3no[n+]([O-])c23)CC1 [NSC-207895]; conditions: top dose 20 µM; top dose inferred
Procedure: as §1

Belinostat = compound: O=C(/C=C/c1cccc(S(=O)(=O)Nc2ccccc2)c1)NO [Belinostat]; conditions: top dose 20 µM; top dose inferred
Procedure: as §1

SB-715992 = compound: Cc1ccc(C(=O)N(CCCN)[C@@H](c2nc3cc(Cl)ccc3c(=O)n2Cc2ccccc2)C(C)C)cc1 [SB-715992]; conditions: top dose 0.128 µM; top dose inferred
Procedure: as §1

OSI-906 = compound: C[C@]1(O)C[C@@H](c2nc(-c3ccc4ccc(-c5ccccc5)nc4c3)c3c(N)nccn32)C1 [OSI-906]; conditions: top dose 2.56 µM; top dose inferred
Procedure: as §1

FTI-277 = compound: COC(=O)[C@H](CCSC)NC(=O)c1ccc(NC[C@@H](N)CS)cc1-c1ccccc1 [FTI-277]; conditions: top dose 1.024 µM; top dose inferred
Procedure: as §1

JQ1 = compound: Cc1sc2c(c1C)C(c1ccc(Cl)cc1)=N[C@@H](CC(=O)OC(C)(C)C)c1nnc(C)n1-2 [JQ1]
Procedure: as §1

JNJ-26854165 = compound: c1ccc2c(CCNc3ccc(Nc4ccncc4)cc3)c[nH]c2c1 [JNJ-26854165]; conditions: top dose 10 µM
Procedure: as §1

JNK Inhibitor VIII = compound: CCOc1nc(NC(=O)Cc2cc(OC)ccc2OC)cc(N)c1C#N [JNK Inhibitor VIII]; conditions: top dose 10 µM; top dose inferred
Procedure: as §1

AMG-706 = compound: CC1(C)CNc2cc(NC(=O)c3cccnc3NCc3ccncc3)ccc21 [AMG-706]; conditions: top dose 2 µM; top dose inferred
Procedure: as §1

[1] = top dose 1 µM, screen: GDSC drug entry 1218, top dose inferred
[2] = top dose 2.56 µM, screen: GDSC drug entry 163

Cell Line	AUC (YM155)	pIC50 (YM155)	AUC (Docetaxel)	pIC50 (Docetaxel)	AUC (NSC-207895)	pIC50 (NSC-207895)	AUC (Belinostat)	pIC50 (Belinostat)	AUC (SB-715992)	pIC50 (SB-715992)	AUC (OSI-906)	pIC50 (OSI-906)	AUC (FTI-277)	pIC50 (FTI-277)	AUC (JQ1; [1])	pIC50 (JQ1; [1])	AUC (JQ1; [2])	pIC50 (JQ1; [2])	AUC (JNJ-26854165)	pIC50 (JNJ-26854165)	AUC (JNK Inhibitor VIII)	pIC50 (JNK Inhibitor VIII)	AUC (AMG-706)	pIC50 (AMG-706)
RMG-I (ovary, adherent)	0.068	> 7.70	0.919	< 7.90	0.954	< 4.70	0.434	6.10	0.818	7.06	0.98	< 5.59	0.98	< 5.99	0.981	< 6.00	0.666	6.30						
CAKI-1 (kidney, adherent)	0.758	5.58	0.865	< 7.90	0.971	< 4.70	0.419	6.17	0.91	< 6.89	0.88	< 5.59	0.932	< 5.99	0.956	< 6.00	0.467	6.90	0.822	< 5.00				
RCC-MF (kidney, adherent)	0.191	7.56	0.895	< 7.90	0.919	< 4.70	0.317	6.48	0.8	7.08					0.976	< 6.00			0.783	5.25				
UMC-11 (lung carcinoid, adherent)	0.093	> 7.70	0.887	7.94	0.964	< 4.70	0.223	6.66	0.834	7.15	0.99	< 5.59	0.991	< 5.99	0.988	< 6.00	0.578	6.59	0.892	5.02				
UM-UC-3 (bladder, adherent)	0.034	> 7.70	0.806	8.23	0.871	4.77	0.449	6.04	0.7	7.55	0.983	< 5.59	0.987	< 5.99	0.985	< 6.00	0.944	< 5.59	0.848	5.17				
HCC70 (breast, adherent)	0.488	6.53	0.671	8.64	0.931	< 4.70	0.356	6.30	0.857	7.00	0.988	< 5.59	0.985	< 5.99	0.986	< 6.00	0.662	6.35	0.909	< 5.00				
NCI-H2122 (lung adenocarcinoma, adherent)	0.439	6.66	0.695	8.58	0.986	< 4.70	0.747	5.22	0.948	< 6.89	0.547	6.67	0.942	< 5.99	0.982	< 6.00	0.756	6.08	0.919	< 5.00				
G-MEL (melanoma, adherent)			0.653	8.68	0.884	< 4.70			0.888	< 6.89	0.924	< 5.59	0.966	< 5.99	0.971	< 6.00	0.945	< 5.59						
JHH-6 (liver, adherent)			0.678	8.61	0.9	< 4.70	0.565	5.72	0.973	< 6.89	0.895	< 5.59	0.911	< 5.99	0.977	< 6.00	0.667	6.33	0.837	5.16				
DMS-53 (small cell lung carcinoma, adherent)	0.808	5.54	0.988	< 7.90	0.988	< 4.70	0.815	4.92	0.988	< 6.89	0.949	< 5.59	0.988	< 5.99					0.951	< 5.00				
NCI-H292 (lung adenocarcinoma, adherent)	0.032	> 7.70	0.34	9.60	0.827	4.80	0.27	6.62	0.931	< 6.89			0.972	< 5.99	0.976	< 6.00	0.8	5.81	0.755	5.39				
VMRC-RCW (kidney, adherent)	0.545	6.38	0.965	< 7.90	0.979	< 4.70	0.611	5.61	0.917	< 6.89	0.947	< 5.59	0.968	< 5.99			0.66	6.37						
U-2-OS (osteosarcoma, adherent)			0.658	8.65	0.983	< 4.70	0.245	6.67	0.984	< 6.89	0.956	< 5.59	0.979	< 5.99					0.745	5.47				
JHH-7 (liver, adherent)	0.823	5.56			0.979	< 4.70	0.566	5.73	0.963	< 6.89	0.961	< 5.59	0.93	< 5.99	0.988	< 6.00	0.785	5.99	0.869	5.08	0.985	< 5.00	0.984	< 5.70

pIC50: −log10 of the molar value. A lower IC50 marks a more sensitive line; a limit (>, <) means that the fit lies beyond the doses tested. The AUC spans the tested range (256-fold, ending at the top dose) of the same fit; values near 1 show little effect. For some of these results: Where the top dose is marked as inferred, it was calculated from the reported fits. For some of these results: Drugs with an entry number were screened twice under separate entries, and the two screens often disagree.
